Data from publication PMC4336329 (PLoS ONE, 2015).
Among all 310,000 compounds or so, about 14,000 (4.5%) showed an effect of 50% or more. Effects have a minus sign here. The list shows a part of the results.

Each compound was assayed against human ether-à-go-go-related gene (hERG) potassium channel (human, UniProt Q12809) (assay: primary screen, population patch clamp on CHO cells stably expressing hERG).
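Also: peak tail current of the secondary pulse compared with the same well before compound.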

Sequence of human ether-à-go-go-related gene (hERG) potassium channel (Q12809 whole entry, looked up): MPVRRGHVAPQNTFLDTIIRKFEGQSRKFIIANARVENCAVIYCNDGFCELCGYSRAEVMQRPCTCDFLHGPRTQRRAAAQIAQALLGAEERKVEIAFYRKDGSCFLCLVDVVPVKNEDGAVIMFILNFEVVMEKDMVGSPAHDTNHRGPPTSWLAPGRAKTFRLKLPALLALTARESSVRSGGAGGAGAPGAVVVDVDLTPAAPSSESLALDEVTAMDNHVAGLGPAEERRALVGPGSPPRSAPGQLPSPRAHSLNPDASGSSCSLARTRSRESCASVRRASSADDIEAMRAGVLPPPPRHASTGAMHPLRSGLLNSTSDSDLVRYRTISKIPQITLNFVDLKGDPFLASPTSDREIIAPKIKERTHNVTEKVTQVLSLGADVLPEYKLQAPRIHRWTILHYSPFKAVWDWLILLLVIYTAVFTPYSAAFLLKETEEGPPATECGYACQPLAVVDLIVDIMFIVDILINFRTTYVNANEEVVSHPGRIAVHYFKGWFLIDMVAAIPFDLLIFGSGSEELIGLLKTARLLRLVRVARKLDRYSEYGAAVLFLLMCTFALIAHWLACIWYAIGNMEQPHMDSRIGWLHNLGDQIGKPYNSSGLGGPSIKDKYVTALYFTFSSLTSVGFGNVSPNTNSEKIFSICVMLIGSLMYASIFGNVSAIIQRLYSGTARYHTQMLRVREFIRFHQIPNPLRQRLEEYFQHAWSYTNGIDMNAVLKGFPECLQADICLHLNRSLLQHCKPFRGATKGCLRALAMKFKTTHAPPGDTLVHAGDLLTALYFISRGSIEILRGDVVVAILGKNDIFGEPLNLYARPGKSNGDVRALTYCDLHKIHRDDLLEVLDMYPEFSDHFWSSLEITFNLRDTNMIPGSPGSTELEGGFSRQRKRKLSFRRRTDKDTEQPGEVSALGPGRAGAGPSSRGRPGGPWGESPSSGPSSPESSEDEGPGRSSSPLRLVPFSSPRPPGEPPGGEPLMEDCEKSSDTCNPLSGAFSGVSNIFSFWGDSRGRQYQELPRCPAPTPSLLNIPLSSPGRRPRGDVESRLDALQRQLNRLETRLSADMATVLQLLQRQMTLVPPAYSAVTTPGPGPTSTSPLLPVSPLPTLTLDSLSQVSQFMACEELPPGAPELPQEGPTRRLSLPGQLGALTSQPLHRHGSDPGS

Going from `COc1cc2c3c(c1)/C(=C1/SC(=S)NC1=O)C(=O)N3C(C)(C)C=C2C` to `COc1ccc(CO/N=C/c2c(C)[nH]c(=O)[nH]c2=O)cc1`, the “hERG current change (%, negative = inhibition) at 10uM” value falls from 2.71% to 1.47%.

Going from `O=C(COC(=O)CNS(=O)(=O)c1c(F)cccc1F)NC(=O)NC1CCCCC1` to `NS(=O)(=O)c1cc(C(=O)OCC(=O)NC2CC2)ccc1Cl`, the “hERG current change (%, negative = inhibition) at 10uM” value rises from -14.9% to -9.5%.

Going from `COc1ccc(CNc2cc(NCCCO)c([N+](=O)[O-])c3nonc23)cc1` to `COc1ccc(CNc2c(C(=O)O)cnc3c2cnn3C)cc1`, the “hERG current change (%, negative = inhibition) at 10uM” value rises from -1.3% to 27.1%.

Compared with `Cc1cccc(C)c1NC(=O)[C@@]1(CC(=O)O)CC(/C=C/c2ccccc2)=NO1`, `Cc1cc(/C=N/NC(=O)c2cccs2)c(C)n1-c1ccccc1` is lower in “hERG current change (%, negative = inhibition) at 10uM” value: 19.2% for the first, 15.6% for the second.

First: CC(C)(C)C(=O)C(Cl)C(=O)Nc1ccccc1 (stereo not drawn)
Second: CC(C)C(=O)Nc1ccc(NC(=S)NC(=O)c2cc3ccccc3o2)cc1
The “hERG current change (%, negative = inhibition) at 10uM” value of the first is lower: -8.23% for the first, 13.3% for the second.

First: COCCNC(=O)C(c1ccc(F)cc1)N(C(=O)CCC(=O)Nc1nccs1)c1cccc(C)c1 (stereo not drawn)
Second: CCOC(=O)c1ccc(NC2c3ncccc3C(=O)N2Cc2ccc(F)cc2)cc1 (stereo not drawn)
The “hERG current change (%, negative = inhibition) at 10uM” value of the first is higher: 6.78% for the first, -1.36% for the second.

Compared with `Cc1ccccc1NC(=S)NC(C)CCc1ccccc1` (stereo not drawn), `Cc1ccc(CNC(=O)C2CC2c2ccccc2)cc1` (stereo not drawn) is higher in “hERG current change (%, negative = inhibition) at 10uM” value: -4.81% for the first, 5.43% for the second.

Compared with `CC1CN(C(=O)c2cc3cc(Br)ccc3[nH]2)CC(C)O1` (stereo not drawn), `COC(=O)c1c(-c2ccc(Br)cc2)noc1N` is higher in “hERG current change (%, negative = inhibition) at 10uM” value: -8.13% for the first, 10.1% for the second.

First: O=C(c1ccc(=O)oc1)N1CCN(c2ccc(F)cc2)CC1
Second: COc1ccc(N2CCN(C(=O)c3cc(=O)c4cc(C)cc(C)c4o3)CC2)cc1
The “hERG current change (%, negative = inhibition) at 10uM” value of the first is lower: -25.4% for the first, -11.6% for the second.

Compared with `O=C(Nc1ccc(Cl)c(Cl)c1)Oc1ccc(NC(=O)c2ccco2)cc1`, `COc1cc2ccccc2cc1C(=O)NC(=S)Nc1ccc(C(=O)O)cc1` is lower in “hERG current change (%, negative = inhibition) at 10uM” value: 20.5% for the first, 7.46% for the second.

Going from `COC(=O)CCC(=O)Nc1sc2c(c1C#N)CCCC2` to `N#CCC(=O)N/N=C1\CCCCC1C1CCCCC1` (stereo not drawn), the “hERG current change (%, negative = inhibition) at 10uM” value rises from 3.74% to 7.35%.

First: C#CCOCCOCCOCCNc1nc(N2CCN(C(=O)Cn3cc(CCC[NH+]=C(N)N)nn3)CC2)nc(N2CCN(C(=O)[C@H](C)n3cc(CCC[NH+]=C(N)N)nn3)CC2)n1.[Cl-]
Second: COc1ccc(N2CCN(S(=O)(=O)CCNC(=O)COc3cccc(OC)c3)CC2)cc1
The “hERG current change (%, negative = inhibition) at 10uM” value of the first is higher: 6.62% for the first, 4.17% for the second.

Compared with `N#Cc1ccc(Oc2ccc(NC(=O)C3CC=CCC3C(=O)O)cc2)cc1` (stereo not drawn), `CCOC(=O)c1ccc(NC(=O)c2nc[nH]c2C(=O)N2CCc3ccccc3C2)cc1` is lower in “hERG current change (%, negative = inhibition) at 10uM” value: 12.9% for the first, 0.122% for the second.

First: O=c1c2ccccc2oc2cc(NCCCn3ccnc3)ccc12
Second: CCCOc1cccc(-c2nc3ccccc3c(=O)o2)c1
The “hERG current change (%, negative = inhibition) at 10uM” value of the first is lower: -60.9% for the first, 8.72% for the second.

Going from `Cc1ccc(CC2CC(=O)N(Cc3ccco3)C2=O)cc1` (stereo not drawn) to `Cc1ccc(/C(O)=C2/C(=O)C(=O)N(CCN3CCOCC3)C2c2cccs2)cc1` (stereo not drawn), the “hERG current change (%, negative = inhibition) at 10uM” value rises from 1.58% to 8.67%.

Going from `Cc1cc(C)c(S(=O)(=O)NCCC2CCCN2C)c(C)c1` (stereo not drawn) to `Cc1ccc[n+](C(C)C(=O)Nc2ccc(C)c(C)c2)c1.[Br-]` (stereo not drawn), the “hERG current change (%, negative = inhibition) at 10uM” value rises from -2.46% to 6.63%.

First: O=C(Cc1cccc(NC(=O)C2CCCN(C(=O)C3CC3)C2)c1)Nc1cccc(C(=O)N2CCCC2)c1 (stereo not drawn)
Second: COc1cccc(NC(=O)CN2CCN(CC(=O)Nc3ccccc3Cl)CC2)c1
The “hERG current change (%, negative = inhibition) at 10uM” value of the first is higher: 7.83% for the first, -61% for the second.

First: O=[N+]([O-])c1cccc(CN2CCN(c3cccc4[nH]ccc34)CC2)c1
Second: COc1ccc(C(=O)N2CCN(Cc3ccc4c(c3)OCO4)CC2)cc1[N+](=O)[O-]
The “hERG current change (%, negative = inhibition) at 10uM” value of the first is higher: -7.67% for the first, -44.6% for the second.

Going from `COc1ccc(OCC2CCNCC2)cc1.Cl` to `COc1ccc(C(=O)Nc2ccnn2C2CCN(CC3CC=CCC3)CC2)cc1` (stereo not drawn), the “hERG current change (%, negative = inhibition) at 10uM” value falls from -3.56% to -37.4%.

Compared with `C=CCOC(=O)CCP(=O)(CCC(=O)OCC=C)c1ccccc1`, `CN(C(=O)COC(=O)/C=C/c1cccs1)c1c(N)n(Cc2ccccc2)c(=O)[nH]c1=O` is higher in “hERG current change (%, negative = inhibition) at 10uM” value: -16.5% for the first, -10.2% for the second.

Compared with `Nc1c(-c2cccc(Cl)c2)cnc2c(-c3ccccc3)cnn12`, `c1ccc(-c2nc3ccccn3c2-c2ccccc2)cc1` is lower in “hERG current change (%, negative = inhibition) at 10uM” value: 13.9% for the first, -17.4% for the second.

First: CC12CCC(C(=O)N(NC(=O)c3cccnc3)C1=O)C2(C)C (stereo not drawn)
Second: CCC1C(=O)NCCN1C(=O)c1cccc(OC2CCN(S(=O)(=O)N(C)C)CC2)c1 (stereo not drawn)
The “hERG current change (%, negative = inhibition) at 10uM” value of the first is higher: 33% for the first, 14% for the second.

Compared with `CCCCNC(=O)CCC(=O)NNc1nc2ccccc2c2nc(C)nn12`, `CCN(CCn1cccn1)C(=O)c1cc(COc2cccc3cccnc23)on1` is lower in “hERG current change (%, negative = inhibition) at 10uM” value: 21.3% for the first, 15.1% for the second.

First: O=C(CCCn1cc([N+](=O)[O-])cn1)Nc1cccnc1
Second: O=C(NCCc1ccc(F)cc1)c1ccc([N+](=O)[O-])cc1
The “hERG current change (%, negative = inhibition) at 10uM” value of the first is higher: -0.81% for the first, -29.6% for the second.

First: O=C(NCC1CCCO1)c1cc(-c2ccc(Cl)cc2Cl)on1 (stereo not drawn)
Second: COc1ccc(N=c2oc3cc(O)ccc3cc2C(=O)NCC2CCCO2)cc1 (stereo not drawn)
The “hERG current change (%, negative = inhibition) at 10uM” value of the first is lower: -9.68% for the first, 10.8% for the second.

Compared with `CCN(CC)S(=O)(=O)c1ccc(N=N/C(C(C)=O)=C(/C)O)cc1`, `CNC(=O)CC(C(=O)O)c1ccc(OCC(C)C)cc1` (stereo not drawn) is higher in “hERG current change (%, negative = inhibition) at 10uM” value: 7.32% for the first, 8.21% for the second.

Going from `O=C(CN1C(=O)NC2(CCCC2)C1=O)N1CCN(Cc2ccccc2)CC1` to `Cc1ccccc1-c1nc(CN2CCC(C(=O)NCc3ccco3)CC2)c(C)o1`, the “hERG current change (%, negative = inhibition) at 10uM” value falls from -3.04% to -73.6%.

Going from `CC(C)(C)c1ccc(-c2n[nH]c(=S)n2CC2CCCO2)cc1` (stereo not drawn) to `COc1ccc(C(c2nnnn2CC2CCCO2)N2CCN(c3cccc(C)c3C)CC2)cc1.Cl` (stereo not drawn), the “hERG current change (%, negative = inhibition) at 10uM” value rises from -2.69% to 4.59%.

First: Cc1ccc(S(=O)(=O)N2CCOCC2)cc1NC(=O)c1cccc(S(=O)(=O)N2CCCC2)c1
Second: CC1=C(C(=O)Nc2ccc(C(=O)N3CCN(c4ccccc4F)CC3)cc2)SCCO1
The “hERG current change (%, negative = inhibition) at 10uM” value of the first is higher: 1.48% for the first, -11.3% for the second.

First: CCC(C)c1ccccc1NC(=O)COC(=O)c1ccc(N2CCCC2)c([N+](=O)[O-])c1 (stereo not drawn)
Second: O=C(OCCN1C(=O)c2cccc3c(N4CCOCC4)ccc(c23)C1=O)c1cccc(Cl)c1
The “hERG current change (%, negative = inhibition) at 10uM” value of the first is higher: 6.97% for the first, 1.19% for the second.

Compared with `CCOC(=O)c1c(C)[nH]c(NC(=O)N2CCOCC2)c1C`, `CCOC(=O)C1CCN(Cc2c(C(=O)N3CCOCC3)nc3c(C)cccn23)CC1` is lower in “hERG current change (%, negative = inhibition) at 10uM” value: 8.17% for the first, 7.62% for the second.

Going from `Cc1cc(F)ccc1S(=O)(=O)Nc1nc2ccccc2nc1Cl` to `Cn1cnnc1SC1c2cccc3cccc(c23)C1NS(=O)(=O)c1ccc(Cl)cc1` (stereo not drawn), the “hERG current change (%, negative = inhibition) at 10uM” value rises from -1.76% to 4.47%.

Compared with `COc1cccc(C(=O)N(C)CC2CCN(CCc3cccc(C(F)(F)F)c3)CC2)c1`, `COc1cc(C(=O)NC2CCN(Cc3nnnn3Cc3ccc(F)cc3)CC2)cc(OC)c1OC` is higher in “hERG current change (%, negative = inhibition) at 10uM” value: -70.8% for the first, -0.888% for the second.

Compared with `O=c1cnn(Cc2ccc(Cl)c(Cl)c2)c2ccccc12`, `N/C(=N\O)c1cn(Cc2ccccc2Cl)c2ccccc12` is higher in “hERG current change (%, negative = inhibition) at 10uM” value: -15.2% for the first, -5.92% for the second.

Compared with `Cc1cc(-c2ccccc2)nc(=O)[nH]1`, `Cc1cc(C)nc(N(C#N)CCOc2ccccc2)n1` is lower in “hERG current change (%, negative = inhibition) at 10uM” value: 10.2% for the first, 7.15% for the second.

Going from `NC(=O)c1ccc(C(F)(F)F)n(Cc2cccc(Cl)c2)c1=O` to `O=C(Cn1nc(Cl)nc1Cl)c1cc2ccccc2oc1=O`, the “hERG current change (%, negative = inhibition) at 10uM” value falls from -2.74% to -16.5%.

First: CCc1nnc(NC(=O)c2ccc(COc3ccc(C)cc3)o2)s1
Second: COc1ccc(CCNC(=O)c2cnc(Cl)c(Cl)c2)cc1
The “hERG current change (%, negative = inhibition) at 10uM” value of the first is lower: 1.37% for the first, 11.2% for the second.

Going from `CC(C)(C)c1cc[n+](-c2nc([O-])sc2C=O)cc1` to `CCOc1ccc2c(c1)S/C(=C\c1cccs1)C(=O)N2`, the “hERG current change (%, negative = inhibition) at 10uM” value falls from 22.2% to 10.5%.

Going from `Cl.c1ccc(-c2nnc(CN3CCN(C(c4ccccc4)c4ccccc4)CC3)o2)cc1` to `COc1ccccc1/C=N\N=C(\N)c1ccccn1`, the “hERG current change (%, negative = inhibition) at 10uM” value rises from -3.69% to 15.2%.

Going from `CC1=NOC(=O)/C1=C/c1ccc(O)c(Br)c1` to `Cc1c(C(=O)N/N=C/c2ccc(N(C)C)cc2)[nH]c2ccc(Cl)cc12`, the “hERG current change (%, negative = inhibition) at 10uM” value falls from 32.4% to 2.69%.

First: COc1cc(CN2CCN(Cc3ccc(C)cc3)C(CCO)C2)cc(OC)c1O (stereo not drawn)
Second: CCOc1cc(NC(=S)NCC2CCCO2)c(OCC)cc1NC(=O)c1ccccc1 (stereo not drawn)
The “hERG current change (%, negative = inhibition) at 10uM” value of the first is lower: -51.6% for the first, -10.2% for the second.

First: CCCCCN(C(=O)COC(=O)COc1c(C)cc(C)cc1C)c1c(N)n(CCCC)c(=O)[nH]c1=O
Second: Cc1ccccc1CN1CCNC(=O)C1CC(=O)N(C)CCC1CCOCC1 (stereo not drawn)
The “hERG current change (%, negative = inhibition) at 10uM” value of the first is lower: -14.4% for the first, 18.2% for the second.

Compared with `c1nc(N2CCC3(CC2)OCCO3)c2[nH]cnc2n1`, `O=C(c1ccc2c(c1)OCO2)N(Cc1ccco1)C1(C(=O)NC2CCCCC2)CCCCC1` is lower in “hERG current change (%, negative = inhibition) at 10uM” value: 20.8% for the first, -20.2% for the second.

For `O=C(NCc1ccc2c(c1)OCO2)C1CC(=O)N(c2ccc(Cl)cc2)C1` (stereo not drawn), the “hERG current change (%, negative = inhibition) at 10uM” value was -36.1%.
